Molecules are shown by their SMILES. Among all 310,000 compounds or so, about 2,200 (0.71%) showed an effect of 50% or more. Effects have a minus sign here. Some of the results follow.

The target in this test is human ether-à-go-go-related gene (hERG) potassium channel (human, UniProt Q12809). The test can be described thus: primary screen, population patch clamp on CHO cells stably expressing hERG.
Chain of human ether-à-go-go-related gene (hERG) potassium channel (Q12809 whole entry, looked up): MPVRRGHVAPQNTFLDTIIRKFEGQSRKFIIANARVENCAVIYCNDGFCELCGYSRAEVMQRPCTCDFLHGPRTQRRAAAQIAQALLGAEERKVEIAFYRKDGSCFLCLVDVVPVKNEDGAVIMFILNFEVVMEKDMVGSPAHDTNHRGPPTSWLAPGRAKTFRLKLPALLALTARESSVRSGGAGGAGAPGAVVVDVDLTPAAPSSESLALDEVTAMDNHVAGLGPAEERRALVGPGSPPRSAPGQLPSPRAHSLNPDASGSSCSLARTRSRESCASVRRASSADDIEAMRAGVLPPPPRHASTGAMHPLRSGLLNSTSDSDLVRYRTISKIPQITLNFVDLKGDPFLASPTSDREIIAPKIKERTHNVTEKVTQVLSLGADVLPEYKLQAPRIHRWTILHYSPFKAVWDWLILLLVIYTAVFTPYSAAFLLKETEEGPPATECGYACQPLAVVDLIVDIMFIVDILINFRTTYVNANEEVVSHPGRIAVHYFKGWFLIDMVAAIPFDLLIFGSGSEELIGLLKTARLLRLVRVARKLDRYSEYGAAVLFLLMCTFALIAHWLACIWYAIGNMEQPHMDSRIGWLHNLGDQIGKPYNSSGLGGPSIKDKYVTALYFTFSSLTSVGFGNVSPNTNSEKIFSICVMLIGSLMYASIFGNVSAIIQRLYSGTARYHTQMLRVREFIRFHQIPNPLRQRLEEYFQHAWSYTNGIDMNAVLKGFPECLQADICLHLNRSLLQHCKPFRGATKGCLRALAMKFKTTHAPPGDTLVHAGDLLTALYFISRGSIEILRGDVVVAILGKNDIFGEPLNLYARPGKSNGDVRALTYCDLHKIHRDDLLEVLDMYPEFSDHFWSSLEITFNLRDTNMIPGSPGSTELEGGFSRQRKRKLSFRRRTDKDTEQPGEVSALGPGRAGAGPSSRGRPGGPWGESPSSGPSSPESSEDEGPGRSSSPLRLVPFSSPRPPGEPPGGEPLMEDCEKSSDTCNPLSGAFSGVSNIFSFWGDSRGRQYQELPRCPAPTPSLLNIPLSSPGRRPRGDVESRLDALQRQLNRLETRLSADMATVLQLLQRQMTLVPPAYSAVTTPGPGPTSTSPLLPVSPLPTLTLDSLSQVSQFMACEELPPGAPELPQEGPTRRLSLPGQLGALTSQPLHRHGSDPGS
With `CCOc1ccccc1N1CCN(C(=O)CNC(=O)c2ccccc2F)CC1`, the “hERG current change (%, negative = inhibition) at 1uM” value was -12.2%.

On to `O=C(Cn1c2ccccc2c(=O)c2ccccc21)N/N=C/c1cc([N+](=O)[O-])ccc1N1CCCCC1`, for which the “hERG current change (%, negative = inhibition) at 1uM” value is 4.22%.

Consider `COc1cccc2cc(/C(C)=N/Nc3nc(-c4cc(C)ccc4C)cs3)c(=O)oc12`, for which the “hERG current change (%, negative = inhibition) at 1uM” value is 3.8%.

Turning to `N#Cc1c2c(c(-c3ccco3)[nH]c1=O)CCCC2`, the “hERG current change (%, negative = inhibition) at 1uM” value is recorded as 5.38%.

On to `COc1ccccc1N1C(=O)[C@@H]2C(C(=O)CN3C(=O)c4ccccc4C3=O)=NN[C@@H]2C1=O`, for which the “hERG current change (%, negative = inhibition) at 1uM” value is recorded as 13%.

Regarding `CCC(=O)Nc1ccccc1Sc1ncnc2scc(-c3ccccc3)c12`, the “hERG current change (%, negative = inhibition) at 1uM” value was found to be 4.48%.

Take `CN(C)CCNC(=O)c1cc2cc(Br)ccc2oc1=O`: the “hERG current change (%, negative = inhibition) at 1uM” value turned out to be 6.58%.

As for `CCOC(=O)C1=NN(C(=O)Nc2cccc(C(F)(F)F)c2)C2C(=O)N(c3cccc(C(F)(F)F)c3)C(=O)C12` (centres unmarked), the “hERG current change (%, negative = inhibition) at 1uM” value came to 10%.

Regarding `Cc1cccc(-n2c(SCc3cc(=O)n4ccsc4n3)nc3ccccc3c2=O)c1`, the “hERG current change (%, negative = inhibition) at 1uM” value is listed as 13.2%.

Regarding `COc1ccc(S(=O)(=O)N2CCCCCC2)cc1NC(=O)Cc1ccccc1F`, the “hERG current change (%, negative = inhibition) at 1uM” value is listed as -7.9%.

With `COCC(C)NC(=O)c1cc(-c2ccc(OC)c(OC)c2)on1` (centres unmarked), the “hERG current change (%, negative = inhibition) at 1uM” value stood at 5.77%.

In the case of `Cc1ccc(NC(=O)COC(=O)CSC(=S)N2CCOCC2)cc1`, the “hERG current change (%, negative = inhibition) at 1uM” value is reported as 16.6%.

Regarding `C/C(=N\N=C(N)N)c1cc(Cl)ccc1Cl.CC(=O)O`, the “hERG current change (%, negative = inhibition) at 1uM” value amounted to 7.3%.

On to `Cc1c(Br)c(=O)oc2c(C)c(O)ccc12`, for which the “hERG current change (%, negative = inhibition) at 1uM” value came out at 9.33%.

Take `O=C(COc1ccccc1)NC1CCCCCCC1`: the “hERG current change (%, negative = inhibition) at 1uM” value is given as -3.06%.

As to `CCCCOC(=O)C[N+](C)(C)CCOC1CC2CCC1(C)C2(C)C.[Br-]` (centres unmarked), the “hERG current change (%, negative = inhibition) at 1uM” value is reported as -4.93%.

As for `CS(=O)(=O)N(Cc1ccc(C(=O)NCc2ccco2)cc1)c1ccccc1`, the “hERG current change (%, negative = inhibition) at 1uM” value came to 2.71%.

For `COc1ccc(/C=N/n2c(-c3ccc(C)cc3)n[nH]c2=S)cc1OC`, the “hERG current change (%, negative = inhibition) at 1uM” value is given as 13.6%.

As to `CCN(CC)P(=O)(/C(Cl)=C\Nc1c(C)n(C)n(-c2ccccc2)c1=O)N(CC)CC`, the “hERG current change (%, negative = inhibition) at 1uM” value is reported as -5.86%.

As to `CCc1ccc(-n2c(Cn3nc(C(F)(F)F)cc3C)n[nH]c2=S)cc1`, the “hERG current change (%, negative = inhibition) at 1uM” value was determined as 9.52%.

On to `Cc1ccc(-c2noc(CCCc3ccccc3)n2)cc1`, for which the “hERG current change (%, negative = inhibition) at 1uM” value is given as 9.6%.

On to `CC(=O)c1ccc(N(CC(=O)NC2CCCC2)C(=O)CCC(=O)Nc2cc(C)on2)cc1`, for which the “hERG current change (%, negative = inhibition) at 1uM” value is recorded as 12.7%.

On to `Cn1c(NCc2ccco2)nc2c1c(=O)n(Cc1ccc(Cl)cc1)c(=O)n2C`, for which the “hERG current change (%, negative = inhibition) at 1uM” value was determined as 6.31%.

As to `Cc1sc2cc3c(c(C(=O)c4ccccc4)[n+]2c1C)-c1cccc2cccc-3c12.[Br-]`, the “hERG current change (%, negative = inhibition) at 1uM” value is listed as -47.2%.

On to `Cc1ccc(CNC(=O)COC(=O)c2c(C)noc2C)cc1`, for which the “hERG current change (%, negative = inhibition) at 1uM” value is recorded as 12.5%.

As to `O=C(c1ccc(COc2ccccc2Cl)o1)N1CCN(c2ccccc2)CC1`, the “hERG current change (%, negative = inhibition) at 1uM” value was determined as 6.6%.

As for `O=C(CSc1nnc(-c2ccc(F)cc2)c2ccccc12)Nc1ccccc1Cl`, the “hERG current change (%, negative = inhibition) at 1uM” value worked out at 15.2%.

For the molecule `O=C(Nc1nc2c(s1)CN(Cc1ccccc1)CC2)c1cccc(S(=O)(=O)N2CCc3ccccc32)c1`, the “hERG current change (%, negative = inhibition) at 1uM” value is 11.5%.

With `Cn1c(=O)n(C)c2cc([N+](=O)[O-])c(N3CCN(C(=O)C(C)(C)C)CC3)cc21`, the “hERG current change (%, negative = inhibition) at 1uM” value worked out at 11.3%.

Regarding `Clc1ccc(N2CCN(c3nc4nonc4nc3N3CCSCC3)CC2)nc1`, the “hERG current change (%, negative = inhibition) at 1uM” value is -0.32%.

As to `COc1ccc(-n2nc(N)c3c(=O)oc(N(C)C)nc32)cc1`, the “hERG current change (%, negative = inhibition) at 1uM” value was 9.61%.

Turning to `CCCOc1ccc2cc(-c3ccccn3)c(=O)oc2c1`, the “hERG current change (%, negative = inhibition) at 1uM” value is -7.01%.

As to `CCOc1[nH]n(-c2ccccc2)c(=O)c1C=Nc1ccccc1`, the “hERG current change (%, negative = inhibition) at 1uM” value was 2.99%.

With `CCOCCCn1c(=N)c(C(=O)NCCN2CCOCC2)cc2c(=O)n3cccc(C)c3nc21`, the “hERG current change (%, negative = inhibition) at 1uM” value is reported as -17%.

`CC1=NN(C(=O)c2csc(C(C)C)c2)C(O)(C(F)(F)F)C1` (centres unmarked): the “hERG current change (%, negative = inhibition) at 1uM” value is reported as 7.09%.

For the molecule `Cc1cccc(C(=O)NNC(=O)C2CCCO2)c1` (centres unmarked), the “hERG current change (%, negative = inhibition) at 1uM” value is recorded as -4.43%.

As for `Cc1ccnc(NC(=O)c2ccc(Cl)cc2Cl)n1`, the “hERG current change (%, negative = inhibition) at 1uM” value is 5.53%.

As to `O=C(c1ccc(Cl)cc1)N(Cc1ccccc1F)N1C(=O)CCCC1=O`, the “hERG current change (%, negative = inhibition) at 1uM” value is recorded as 11.4%.

For `O=C(N/N=C/C=C/c1ccco1)c1cccc([N+](=O)[O-])c1`, the “hERG current change (%, negative = inhibition) at 1uM” value is reported as -0.965%.

With `Cc1cccc(NS(=O)(=O)c2csc(C(N)=O)c2)c1C`, the “hERG current change (%, negative = inhibition) at 1uM” value was found to be 13.2%.

For `Cc1[nH]c(=O)[nH]c(=O)c1S(=O)(=O)Nc1ccc(Br)cc1F`, the “hERG current change (%, negative = inhibition) at 1uM” value stood at 13.7%.

`O=C(O)CCCNC(=O)CCCNC(=O)C(c1ccccc1)c1ccccc1`: the “hERG current change (%, negative = inhibition) at 1uM” value came out at 27.1%.

On to `CCc1ccccc1NC(=S)N1N=CCC1c1ccccc1` (centres unmarked), for which the “hERG current change (%, negative = inhibition) at 1uM” value is given as 7.45%.

As to `O=C(Nc1ccc(Cl)c(S(=O)(=O)N2CCOCC2)c1)[C@@H]1CCCN1C(=O)c1cccs1`, the “hERG current change (%, negative = inhibition) at 1uM” value is given as 2.27%.

On to `CC(C)OC(=O)Cc1ccccc1`, for which the “hERG current change (%, negative = inhibition) at 1uM” value worked out at 10.3%.

As to `COCCSc1nnc(NC(=O)c2ccc(OC)c([N+](=O)[O-])c2)s1`, the “hERG current change (%, negative = inhibition) at 1uM” value is reported as 12.6%.

As for `COc1ccc2oc(C(=O)N(C)Cc3ccc(OC(F)F)cc3)c(C)c2c1`, the “hERG current change (%, negative = inhibition) at 1uM” value is given as 11.3%.

Turning to `COC(=O)Cn1cnc2c(nnn2Cc2ccc(Cl)cc2)c1=O`, the “hERG current change (%, negative = inhibition) at 1uM” value turned out to be 4.47%.

As to `CCCCNc1cc(=O)oc2ccccc12`, the “hERG current change (%, negative = inhibition) at 1uM” value amounted to 7.81%.

In the case of `CNc1c(NS(=O)(=O)c2ccc(F)cc2)c(=O)oc2ccccc12`, the “hERG current change (%, negative = inhibition) at 1uM” value was found to be 17%.

With `CC(C)c1ccc(NC(=O)Nc2cnccn2)cc1`, the “hERG current change (%, negative = inhibition) at 1uM” value is given as -5.78%.

Consider `O=C(CSc1nnc(-c2ccco2)o1)N1CCN(c2ccccc2)CC1`, for which the “hERG current change (%, negative = inhibition) at 1uM” value worked out at 14.7%.

As for `Cc1nn(C)c2ncc(C(=O)c3cc(F)ccc3O)cc12`, the “hERG current change (%, negative = inhibition) at 1uM” value is 5.37%.

For the molecule `O=C1CC(c2ccccc2)=NN1c1ccc([N+](=O)[O-])cc1`, the “hERG current change (%, negative = inhibition) at 1uM” value came to 9.9%.

As for `CCCc1cc(=O)n2[nH]c(-c3ccc(Cl)cc3)cc2n1`, the “hERG current change (%, negative = inhibition) at 1uM” value stood at 6.58%.

Consider `O=C(c1cccs1)N(Cc1cc2ccccc2[nH]c1=O)CC1CCCO1` (centres unmarked), for which the “hERG current change (%, negative = inhibition) at 1uM” value turned out to be 9.25%.

For the origin of these results see publication PMC4336329 (PLoS ONE, 2015).
